Sequences and labels used below:
B1: LINE1-mini (parent)
chain: GGCAGAGCUCAACACAGCGUGGCAAAGUGGCUGUGGCUAGACUGCC

Read counts are not given, so values of variants with three or more changes are uncertain.

This series covers variants of B1. Description: self-cleavage, relative activity (ratio to wild type); higher = more cleavage; in vitro, sequencing; the parent is a self-cleaving ribozyme.
As for C15G A24U G29C C45A, the self-cleavage worked out at 0.02.

Regarding U9A A11C G30A C37A G44C C46G, the self-cleavage amounted to 0.

As to A4C U9G G36C, the self-cleavage was found to be 0.04.

In the case of C15U G27U G40U, the self-cleavage stood at 0.09.

In the case of G2A A12U C23U, the self-cleavage was found to be 0.65.

A4G A39U C42A: the self-cleavage was 0.07.

For the variant G2A C3U A12G A41U, the self-cleavage turned out to be 0.04.

Regarding C15A U32C U38G C42U, the self-cleavage is 0.02.

As to A4G U9C G35C, the self-cleavage was 0.03.

For the variant G30U G35A C45G, the self-cleavage came to 0.01.

With A14U C15U C18U G27A G29A G40C, the self-cleavage is 0.33.

On to A11C G21U A41C U43A C46A, for which the self-cleavage stood at 0.

Take G35U G36U C46U: the self-cleavage came to 0.04.

For the variant G17U C37U A41G C45A, the self-cleavage stood at 0.02.

Regarding G2U A12U A16G C18A G40A, the self-cleavage is 0.03.

With A12C C15A G44C, the self-cleavage was 0.01.

With A12U A14U U34A U43A, the self-cleavage was determined as 0.02.

For the variant A4U G21A C23A, the self-cleavage was 0.06.

For the variant G30U C42U U43G, the self-cleavage stood at 0.04.

As for C3A C10U G21U A24G G36U, the self-cleavage amounted to 0.08.

Turning to C3U C10A G19C C42A, the self-cleavage amounted to 0.04.

As for A4C G5U A6G U9A G36U, the self-cleavage worked out at 0.09.

Take C10G G29A G44U: the self-cleavage was determined as 0.04.

On to G7A U20A C31A G35U, for which the self-cleavage was 0.03.

In the case of C23U G29A G40A, the self-cleavage came out at 0.09.

On to C15U G36C U38A C42A, for which the self-cleavage is 0.02.

G17A G33U C46U: the self-cleavage was 0.09.

In the case of G1C A6U A11U A12G G33C, the self-cleavage was 0.

Take G7A U20G G44U C45A: the self-cleavage came out at 0.16.

With U9G A14C G17A U34G C46A, the self-cleavage stood at 0.01.

For the variant A6G C10U A11U U32G, the self-cleavage was 0.03.

For the variant C13G U20A G27A C42U, the self-cleavage was found to be 0.16.

For the variant G1A U28G G29U G36C, the self-cleavage was 0.11.

Consider A12U G19U G30U, for which the self-cleavage was 0.2.

In the case of C18G C37U C46U, the self-cleavage worked out at 0.07.

On to C8U G17A G21C G27C C31U G35U, for which the self-cleavage worked out at 0.09.

As for A6C C8U C13G G21U G22C G40U, the self-cleavage came out at 0.04.

As for A26U G27U G30C, the self-cleavage was found to be 1.77.

As for C18U U32A G33C A41G, the self-cleavage stood at 0.1.

On to C15G C18G G27U U43A, for which the self-cleavage turned out to be 0.03.

On to U32A G36C G40C, for which the self-cleavage is 0.01.

In the case of C10A G21U A24U G35A, the self-cleavage is 0.01.

G7C G33U C46A: the self-cleavage worked out at 0.06.

Take A4U A6G A14U: the self-cleavage was found to be 0.04.

Consider C10U A11U A14U A26G U32G, for which the self-cleavage stood at 0.02.

For the variant A6G C13U U32G U38C, the self-cleavage was found to be 0.25.

On to G21A C23U C45A, for which the self-cleavage amounted to 1.94.

Turning to A6C G17U G22C G27U, the self-cleavage stood at 0.41.

On to G2U C3G G40C, for which the self-cleavage was found to be 0.03.

Take U20C U38C U43A: the self-cleavage is 0.06.

Turning to G29U G30A U43C, the self-cleavage is 0.21.

For the variant G2A U32C A39G, the self-cleavage was 0.05.

With G1U C13A A24G G27C U38C, the self-cleavage was 0.

Take G1C A12G G30C: the self-cleavage was determined as 0.01.

C8G G35U C46G: the self-cleavage turned out to be 0.06.

C18A U38G A41C G44U C45U C46A: the self-cleavage turned out to be 0.01.

Consider C8A C13G A16G G22A A41C U43A, for which the self-cleavage amounted to 0.01.

Regarding G1U G22U G33U, the self-cleavage is 0.05.

G7C G35A C45G: the self-cleavage was found to be 0.19.

On to A16C G27C A39G C42U, for which the self-cleavage stood at 0.04.

Turning to G22U G29U U32G C46A, the self-cleavage came to 0.07.

In the case of G2A C37U C45G, the self-cleavage was found to be 0.09.

G2U G5U G19C: the self-cleavage stood at 0.02.

For C10A A26U G30A, the self-cleavage stood at 0.05.

On to G22C A41C U43C, for which the self-cleavage came out at 0.09.

Turning to A11G C23G U32A G33A, the self-cleavage stood at 0.

A16U G21U U38A: the self-cleavage was determined as 0.18.

For G17C G30A C31A, the self-cleavage was 0.1.

For A12G U28A G35U, the self-cleavage was found to be 0.02.

In the case of C10G G40A G44A C45U, the self-cleavage was determined as 0.

Regarding A12G A16C G36U, the self-cleavage is 0.01.

For A26U U32G G36U, the self-cleavage was 0.06.

With G5U C18G C46G, the self-cleavage was determined as 0.03.

Consider A14U G21A A26C, for which the self-cleavage worked out at 0.4.

Take G17A G19U C23U A26U U34G G35U: the self-cleavage came out at 0.04.

G2U U9A G19C U43G: the self-cleavage stood at 0.

For the variant G5C C23G U28G, the self-cleavage stood at 0.03.

Take U20G C31U U38A A39C: the self-cleavage amounted to 0.08.

Take G1U C8G G27U: the self-cleavage was determined as 0.02.

A14C G22U U43G: the self-cleavage was found to be 0.

As for C3G A4U G33U G44C C45A, the self-cleavage stood at 0.12.

In the case of C3U A12C A16C U34C U43A, the self-cleavage came out at 0.04.

As to A6G A16U G22C G27U G30U C37A, the self-cleavage amounted to 0.05.

In the case of C8U G21A A26C C31U, the self-cleavage is 0.09.

As to U20G C37A U43A, the self-cleavage came to 0.

In the case of G7U U32C G35A, the self-cleavage came out at 0.03.

Consider C31G G35A G40C, for which the self-cleavage was 0.

Take G2U G7C C15G G29A C37G: the self-cleavage was 0.11.

For the variant G5C C13G C15U A24G A39C U43A, the self-cleavage was determined as 0.01.

In the case of G7A G35U U38G A41U C42A, the self-cleavage is 0.01.

Consider C18A A24U U28G, for which the self-cleavage amounted to 0.06.

For the variant A16C C23A G29U C31U, the self-cleavage turned out to be 0.02.

Consider A24G G27C G29U G36A G44C, for which the self-cleavage was found to be 0.04.

Turning to C3G U32G U38A C42A, the self-cleavage was found to be 0.11.

On to A11C G40C A41U, for which the self-cleavage amounted to 0.01.

Turning to G17A A25G G27U C37G A39G, the self-cleavage was 0.01.

Turning to G7C C10U U38C, the self-cleavage came out at 0.03.

C8A C23A A25U G33A U43C G44A: the self-cleavage is 0.2.

Turning to G2A G17C A41G, the self-cleavage stood at 0.35.

G30C U38A A41G: the self-cleavage was determined as 0.29.

As for C3A G5U U20C, the self-cleavage was 0.08.

As to G5A G33A G40A A41C U43G, the self-cleavage is 0.08.

On to C8G G21U A24U A25U, for which the self-cleavage stood at 0.01.

With C3A C13U G19A U20G, the self-cleavage amounted to 0.81.

For the variant G5A C23G G35C C46U, the self-cleavage came out at 0.07.

As for G1A G17U G40U, the self-cleavage was found to be 0.03.

In the case of A16C G17U G27U, the self-cleavage was 0.19.

G1C U9A U20A C45A: the self-cleavage was found to be 0.03.

For U9G G22A G30A, the self-cleavage came to 0.07.

Turning to A12U G27A U34G A39U, the self-cleavage was 0.24.

Turning to A12G G29U U34A, the self-cleavage came to 0.01.

Turning to G2U C10A G27C, the self-cleavage was 0.04.

As to C10U A41C C46A, the self-cleavage was 0.05.

For G2C C3G C13U, the self-cleavage amounted to 0.06.

Turning to A4C G5U G44A, the self-cleavage came out at 0.06.

On to A14U C23A G44U, for which the self-cleavage came to 0.04.

In the case of A4G C13U G30U, the self-cleavage was 0.32.

On to C10A A11C A16U G22C C23A G35A, for which the self-cleavage is 0.01.

For the variant C10U A12C G17U C23U G35U, the self-cleavage turned out to be 0.

On to C10A A11C G17C G30U C37G, for which the self-cleavage came to 0.

Take A16U G29U U32A: the self-cleavage amounted to 0.1.

Regarding G7U A14G C15G A41G, the self-cleavage worked out at 0.02.

As to A6G U9C A41G, the self-cleavage came out at 0.01.

For G1U C18U U34G, the self-cleavage was 0.03.

For G7A U20C G44U, the self-cleavage was 0.18.

C3U C18U G22U G30C: the self-cleavage turned out to be 0.48.

With A6G G21C A25C G27C, the self-cleavage was 0.07.

Take C10A A14U G21U A24C A39C: the self-cleavage amounted to 0.02.

As to C23G G29C G44U, the self-cleavage is 0.03.

On to C13A A14G G17U A24C, for which the self-cleavage was found to be 0.02.

Consider G2A A14C U32C, for which the self-cleavage was determined as 0.14.

On to G7A A16U U43G, for which the self-cleavage came to 0.05.

For the variant A24U G35U G44A, the self-cleavage amounted to 0.01.

In the case of U20A A26C G30C U38A, the self-cleavage came to 0.55.

As to C8A U28C C42A, the self-cleavage came out at 0.18.

As for G7U C10U A12U C15A C18U, the self-cleavage was 0.

Take G5A G7A C15U G29U G30U: the self-cleavage was found to be 0.19.

With A26G U32A G33U U34A U38A, the self-cleavage stood at 0.07.

On to C3A A4C C10U A25U U38A, for which the self-cleavage worked out at 0.04.

For the variant G5A G29U C31U G36U, the self-cleavage turned out to be 0.06.

With G17A G27C C37U, the self-cleavage is 0.1.

Turning to A26C U28C U32G, the self-cleavage worked out at 0.09.

In the case of C3G G7C U43A C45A, the self-cleavage was 0.01.

For G17C U20A C45A C46U, the self-cleavage is 0.04.

With G1A G5C U32A C45A, the self-cleavage came to 0.1.

As for G1U A12G C15A A25G G35A, the self-cleavage stood at 0.01.

In the case of A4C G33U G35C, the self-cleavage turned out to be 0.36.

For G5C G27A U32G U38A U43C, the self-cleavage amounted to 0.04.

Regarding A6G G7A C45G C46U, the self-cleavage turned out to be 0.31.

Take G1A C3U C8A A16U G19C C46U: the self-cleavage worked out at 1.63.

With G21U A24C G27U G33U U43C, the self-cleavage came out at 0.03.

A12G C23G A26G: the self-cleavage was 0.

Take C3A G5C A12C C13U A14U U32G G35C A41C: the self-cleavage was found to be 0.07.

As to C13A A14C G21A C23G G30U G44U C45A, the self-cleavage is 0.04.

On to A14C C23U G33A G35U G36C C45A C46A, for which the self-cleavage came to 0.11.

As for U9A G35C C37G A39G, the self-cleavage is 0.11.

C23A G33U U38A: the self-cleavage was found to be 0.75.

For G1U G2A A14G C23U G36A, the self-cleavage was 0.04.

For the variant C3G G21U G33U, the self-cleavage was found to be 0.23.

With G5A A14C C46A, the self-cleavage is 0.21.

Take A12G A14U C15G G21C C31U U32C: the self-cleavage is 0.03.

As for G1C G7C C15A G22A A39U, the self-cleavage came to 0.02.

Consider C3G C10A G19U A39U, for which the self-cleavage was found to be 0.02.

For the variant A6C A26C U34A, the self-cleavage amounted to 0.07.

For the variant G1U G7A G22C G40A, the self-cleavage is 0.06.

With G2A C13G A14G C15U A16U G21U U32A C46A, the self-cleavage worked out at 0.32.

Take G7C G27A C45A: the self-cleavage stood at 0.03.

(Values after the RNAGym collection of RNA variant scans (doi:10.7554/elife.90254).)
